# Data taken from the supplement of paper PMC11417369.
# The list shows a part of the results.
# Tested on: PfHDP1 homeodomain (GST-tagged)
# Experiment: gcPBM binding intensity (ln(normalized median fluorescence intensity)); higher = stronger DNA binding
# Procedure, shortened: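 For binding intensity, the highest Masliner-normalised natural-log median intensity across replicate spots of either probe orientation was taken. Protein bound to the array was stained with Alexa488 anti-GST antibody and scanned at 488 nm. The protein, GST-tagged P. falciparum DNA-binding domains from E. coli at about 25 μg on average, had been applied for 1 h to an Agilent 4 × 180k array of primer-extended double-stranded 36-bp intergenic genomic probes and negative controls.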
row,Sequence,gcPBM binding intensity (ln)
1,GTTAAGAATATGTGTACACATATACATAAATACATA [CACACA_site4254],7.12
2,AATAGCTAGCTGTGCACACAAACATATTTTCCAAAT [CACACA_site880],10.3
3,AACAACTATTAATTTACACACATGTATATATTTTAC [CACACA_site3116],6.82
4,GGATGGAGTAGTTAAGCATAATAAATAAAATTATGT [CACACA_negctrl_site578],6.4
5,GTTTTAAACAAAAATTGTACAATATAATCTTCCTAT [XGTACX_site2851],6.43
6,ATATATATATAATTTTGTACATAATAGCAATTCTAA [XGTACX_site653],8.32
7,CAAAACCTTTTATGTACACACATATACATCCCACTT [CACACA_site5716],6.88
8,AAAAAAATTGGGAAAAGTACTTGCAGCTAGCTAAAA [XGTACX_site5178],6.71
9,TTAAAAAAAATTTCAAGTACAAAGTAATATATATAT [XGTACX_site5718],8.34
10,AAACAAATATAATATTGTACATATATATATATATAT [XGTACX_site3105],9.41
11,CAGACGCACGTATTTGCACACATTGCCACGTAATTA [CACACA_site3349],10.2
12,AACCATTCAACTGATGCATGCATTTAACATATAAAT [TGCATGCA_site961],6.69
13,GGATTGATAAGTGGTACACACATATATATTATATAT [CACACA_site2866],6.59
14,AAATATAAAAATAGCACACATATATACCTATATATA [CACACA_site4204],7.26
15,GCATTGGGAATATATAGTACATATATATATATATAA [XGTACX_site2967],6.56
16,AAAAATATTTAAAATACACACATATATATAATATAT [CACACA_site2006],6.46
17,TTGAAAATAATATGAAGTACATTATTTTTTTTTAAT [XGTACX_site4499],6.04
18,AAAACTTTCCATGTTTGTACATAAAATATAATAATT [XGTACX_site2716],6.37
19,TTTTTTTTCTTTTTTTTTTTTTCAAAAGCTTATAAT [CACACA_negctrl_site1526],5.8
20,GTGTATTTGGTGCGCACACACATGCAAAAAGAAATA [CACACA_site4768],9.15
21,TGTATAATCATATATACACACACATATATATATATA [CACACA_site8674],9.31
22,TTATATAAAAAAAAATGTACATATAATTGGTAAATT [XGTACX_site5180],6.49

row,Sequence,gcPBM binding intensity (ln)
1,ATTTTTTTTTTTTTTTTTCATTTTTTTTTTTTTTTT [CACACA_negctrl_site1204],6.17
2,TATATATTATATATATGTACATAATTCCATGTTTAG [XGTACX_site3943],6.82
3,AACTCTTAAAAATAAACATGCAAATATTTACCTTCT [TGCATGCA_site986],6.49
4,CTTGAAAGATTTTATTGTACTCATAAGATACATTTC [XGTACX_site3178],6.05
5,TCATACAATATTAAATGTACATATATATATATATAT [XGTACX_site8828],9.25
6,ATATTAAAGCCTTTTTGTACATATAAATAAACATAG [XGTACX_site4667],6.66
7,TAATTTTTATTCAAGAGTACACAAAAGATAACTAAA [XGTACX_site4060],6.26
8,TAGATACCTATAGAAACATGCAATTGAATATATTTC [TGCATGCA_site402],6.39
9,TTCTTACACGTTTGCACACTAAAATATATATATATA [CACACA_site434],10.7
10,TAAAAAAAATCATTCACACATATATGAAAAAAAAAA [CACACA_site5546],6.39
11,TAAATAATTCTTTTAGTACACACGAATAAGCAGATA [CACACA_site305],6.66
12,GTTACATACATATACACACACATATATATATATATA [CACACA_site901],9.29
13,TATGTGATAACACGCACACAAATGTATTTAATTTAT [CACACA_site5435],6.8
14,AAAAAATGAAAATATTCCAAAATAGAGGGAAATGTA [GTGCAC_negctrl_site572],6.5
15,CACAAAAATGTAATCACACATATATATATATATATA [CACACA_site5818],9.36
16,CTTTTTTAAAATATTTAACACACAATTTTAATGCAT [CACACA_site9303],6.43
17,AAAATTAGGAGACATGCATGTAACGATAAATATAAC [TGCATGCA_site148],7.67
18,TTATATTTATATATTTGTACGTATGTATATAATTCA [XGTACX_site2993],6.14
19,ATTCTAATAATATATACACACACATATATATTTATA [CACACA_site8629],6.74
20,GGTGGCTAAATTACAACACACGACGGAATATTATAT [CACACA_site4114],6.66
21,AATATATGGTTTCATTATATTAAATTCAATTTAATG [CACACA_negctrl_site675],5.99
22,ACCGTGGGAAGACACACACACACACCCACATATATA [CACACA_site333],6.55

row,Sequence,gcPBM binding intensity (ln)
1,TTTTATTCATTGAGCACACAAAATAAATTATCAAAA [CACACA_site3279],6.88
2,TGATTTATCTATATTTTATAAGTTATTTATTTTTTT [CACACA_negctrl_site1603],5.8
3,AGTATATAATAATTTACACACAAAAAAATATCAGGA [CACACA_site3517],6.7
4,ATATAAATATTTATTAGTACACATTAGTGTAGTTTT [XGTACX_site4493],6.49
5,CTATATTATTTTTCTTGTACGTAGGAAATATAGCTA [XGTACX_site6176],6.45
6,GAAAATTATATGTGTTGTACACTTGCAACAACTATT [XGTACX_site3637],7.29
7,AAAATATATATTAACACACACACAAAAAAAAAAAAA [CACACA_site1325],6.34
8,AGATATAAGAAAAGCACACACACACCCAAAAAAAAA [CACACA_site2826],6.89
9,TTTTATAATGTTGTAGTGCAAAATACGTATATTTAT [GTGCAC_site9826],9.65
10,AATAAATATATGTACACACACAAATATATACATATC [CACACA_site1903],6.55
11,TGTGTATATAAATAATGTACATATATATTTTTTTAT [XGTACX_site7341],6.42
12,GTAAAAAAAAAAAAAAGTACATTATACATATATTTA [XGTACX_site5447],5.9
13,AAAGTATAAATAAATACACACATATATATATATATA [CACACA_site2892],9.23
14,TGGAGGATAGTTCACAGTACCCAGTAACTCTACGGA [XGTACX_site4930],6.22
15,AACCATAACTCATATGCACACATAAATATTACATAT [CACACA_site9273],9.77
16,TACATTCGGAGTAAAAAAAAATTTATACAATTACTT [XGTACX_negctrl_site29],6.1
17,TCTTGAAAAAGAATCAATCGGTCGACAAAAAAAAAA [CACACA_negctrl_site1099],6.42
18,AAAAAACACTTAAGGTGTACCTTTTAATATAAGTAT [XGTACX_site2397],6.34
19,GACAAATAATAAAAGGTGCATTATACTTAACAAAAA [GTGCAC_site9624],9.69
20,ATATTCTTGTTTAATACACACTGTAGTATTATAGAT [CACACA_site6341],7.02
21,TTTTTTAATATTTATTAATTAAACTTTGTTTTTGTT [XGTACX_negctrl_site454],5.88
22,AAAAATGTATGTATGGTGCAGTATTCATATCATTTT [GTGCAC_site9458],7.53

row,Sequence,gcPBM binding intensity (ln)
1,AAAATGAACAAACACACACACATATATATATATATA [CACACA_site2403],9.15
2,TTATTGTGTAAGATGATTTTCTTCGTCACTTTGAAA [CACACA_negctrl_site1814],5.77
3,AATAAAAAAGGAAACAAATTAATATATATATATATA [CACACA_negctrl_site467],9.19
4,TATATTTGGAAAACATGTACATATAACAATATGTAA [XGTACX_site324],6.4
5,AAAAAAAGAAATAATAAAAAATATATATATATATAT [GTGCAC_negctrl_site702],9.39
6,CGTACATAATTTTAATCACACACAAACAAACACATA [CACACA_site7947],7.11
7,TGTTTTGTTGTGTATTGTACTAATATAAATATATAA [XGTACX_site1852],6.94
8,TAAAAAAACGCACTCGTACACACATATTTTCTTTCT [CACACA_site3090],7.28
9,TTTTATGATTGACACACACACAAAAAAAAAAAAAAA [CACACA_site7860],6.37
10,AAGACACAAAAACACACACACATACATACATACATA [CACACA_site454],6.9
11,TATGTTGATGATGATAGTACATATGAGTTCAAAAAA [XGTACX_site7712],6.55
12,TAAAAATATAGGTATACACACATATAAATATAAATA [CACACA_site7785],6.38
13,CTTATACATAAATTTTGTACACACAAAAAAAAAAAA [XGTACX_site2665],6.57
14,ATAAATATAAATATATGTACATATATATATATATAT [XGTACX_site7433],9.18
15,GATTTTAAAATAATTACACACTTGATTATGTCCAAA [CACACA_site3491],6.41
16,TAAATATTTATAAACACACAAATATTTATATTTATA [CACACA_site6166],6.08
17,TTTATTTATTAATACACACACACACGCCCACAAAAT [CACACA_site6253],7.3
18,AGGGACATATATATCACACACAAAAATTAGTCCCTT [CACACA_site2778],6.4
19,AAATAGAGAAATACAAGTACATATCAAACCAATCTA [XGTACX_site2756],6.25
20,ATGAATATAATGAAGTGTACATAAAAATAATAAATA [XGTACX_site2481],6.95
21,ATACATATAGGATGCACACATAATTCAAATACAATA [CACACA_site651],8.83
22,TTTGAAATATATTTAGTGCATATATATTGATTATAA [GTGCAC_site9604],9.41
